# According to the supplement of paper PMC10037445:
# Values joined by “and” are separate entries in the source; they are usually repeats but may differ in a detail not shown here. Identical values can stand only once. ± gives the standard deviation of the averaged measurements. Whole data set: some 2,900 compounds, median “IRF Lucia reporter activity, fold change vs agonist alone” near 0.9, cut for the highest 2% near 2.8. This is one part of the list.
# Experiments:
# RAW-Dual [1] = assay: IRF Lucia reporter activity, fold change vs agonist alone; cytotoxicity flag (confluency mask): not cytotoxic; higher = enhanced IRF activity
# In short: (§1)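 RAW-Dual macrophages were seeded in DMEM at 50,000 cells/well in 384-well plates, given 50 nL of library stock by pin tool, and given a PRR agonist 1 h later. Plates were held at 37 °C, 5% CO2 for 20 hours, after which supernatant was read for IRF by QuantiLuc luminescence and for NF-κB by QuantiBlue absorbance at 620 nm. Reporter activity is expressed as fold change over wells that received agonist alone. A well was called cytotoxic when IncuCyte confluency fell below 70% of agonist controls in both mask sets.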
# RAW-Dual [2] = assay: IRF Lucia reporter activity, fold change vs agonist alone; higher = enhanced IRF activity; settings: library stock concentration (final ~1000-fold dilution): 10 mM, agonist: MPLA (TLR4) […]
# In short: as §1
# RAW-Dual [3] = assay: IRF Lucia reporter activity, fold change vs agonist alone; cytotoxicity flag (confluency mask): cytotoxic (confluency <70% of control); higher = enhanced IRF activity
# In short: as §1
# [4] = agonist: 3'3'-cGAMP (STING) 10 ug/mL
# [5] = cytotoxicity flag (confluency mask): not cytotoxic
structure (smiles),measurement,setting,value
O=c1c(-n2ccnn2)c[nH]n1-c1cc(N2CCOCC2)ncn1 (library stock concentration (final ~1000-fold dilution): 2 mM),IRF Lucia reporter activity,RAW-Dual [1]; [4],0.977
same,IRF Lucia reporter activity,RAW-Dual [1]; agonist: LPS (TLR4) 0.1 ug/mL,0.873
COc1cc(/C=C/CO)cc(OC)c1OC1OC(CO)C(O)C(O)C1O (stereo not given) (library stock concentration (final ~1000-fold dilution): 10 mM),IRF Lucia reporter activity,RAW-Dual [1]; [4],1.08
same,IRF Lucia reporter activity,RAW-Dual [1]; agonist: LPS (TLR4) 0.1 ug/mL,0.899
COc1cc(/C=C/CO)cc(OC)c1OC1OC(CO)C(O)C(O)C1O (stereo not given),IRF Lucia reporter activity,RAW-Dual [2]; [5],1.05
Cc1cnc(-c2cc(N3CCN(C(=O)CCS(C)(=O)=O)CC3)ncc2Cl)c(C)c1,IRF Lucia reporter activity,RAW-Dual [2]; [5],1.07
Cc1cnc(-c2cc(N3CCN(C(=O)CCS(C)(=O)=O)CC3)ncc2Cl)c(C)c1 (library stock concentration (final ~1000-fold dilution): 10 mM),IRF Lucia reporter activity,RAW-Dual [1]; [4],1.08
same,IRF Lucia reporter activity,RAW-Dual [1]; agonist: LPS (TLR4) 0.1 ug/mL,1.07
CNC(=O)c1cc(Oc2ccc3nc(NC4CCCCC4O)sc3c2)ccn1 (stereo not given) (library stock concentration (final ~1000-fold dilution): 10 mM),IRF Lucia reporter activity,RAW-Dual [1]; [4],1
same,IRF Lucia reporter activity,RAW-Dual [1]; agonist: LPS (TLR4) 0.1 ug/mL,0.776
N#CCNC(=O)c1ccc(-c2ccnc(Nc3ccc(N4CCOCC4)cc3)n2)cc1 (library stock concentration (final ~1000-fold dilution): 10 mM),IRF Lucia reporter activity,RAW-Dual [1]; [4],0.97
same,IRF Lucia reporter activity,RAW-Dual [1]; agonist: LPS (TLR4) 0.1 ug/mL,0.0185
N#CCNC(=O)c1ccc(-c2ccnc(Nc3ccc(N4CCOCC4)cc3)n2)cc1,IRF Lucia reporter activity,RAW-Dual [2]; [5],0.966
Cc1ccc(C(=O)Nc2ccc(Oc3cc4cnn(C)c4cc3-c3cn[nH]c3)c(F)c2)c(=O)n1-c1ccc(F)cc1 (library stock concentration (final ~1000-fold dilution): 10 mM),IRF Lucia reporter activity,RAW-Dual [1]; [4],0.0679
same,IRF Lucia reporter activity,RAW-Dual [1]; agonist: LPS (TLR4) 0.1 ug/mL,0.219
Cc1ccc(C(=O)Nc2ccc(Oc3cc4cnn(C)c4cc3-c3cn[nH]c3)c(F)c2)c(=O)n1-c1ccc(F)cc1,IRF Lucia reporter activity,RAW-Dual [2]; [5],0.178
OCc1c[nH]c2ccccc12 (library stock concentration (final ~1000-fold dilution): 10 mM),IRF Lucia reporter activity,RAW-Dual [1]; [4],0.803 and 0.565
same,IRF Lucia reporter activity,RAW-Dual [1]; agonist: LPS (TLR4) 0.1 ug/mL,0.839 and 0.758
OCc1c[nH]c2ccccc12,IRF Lucia reporter activity,RAW-Dual [2]; [5],1.07 ± 0.022
CCC1C(=O)N(C)c2cnc(Nc3ccc(C(=O)NC4CCN(C)CC4)cc3OC)nc2N1C1CCCC1 (stereo not given),IRF Lucia reporter activity,RAW-Dual [2]; cytotoxicity flag (confluency mask): cytotoxic (confluency <70% of control),0.0268
CCC1C(=O)N(C)c2cnc(Nc3ccc(C(=O)NC4CCN(C)CC4)cc3OC)nc2N1C1CCCC1 (stereo not given) (library stock concentration (final ~1000-fold dilution): 10 mM),IRF Lucia reporter activity,RAW-Dual [3]; [4],0.0273
same,IRF Lucia reporter activity,RAW-Dual [3]; agonist: LPS (TLR4) 0.1 ug/mL,0.0258
O=C(/C=C/c1ccc(O)cc1)c1ccc(O)cc1O,IRF Lucia reporter activity,RAW-Dual [2]; [5],0.655
O=C(/C=C/c1ccc(O)cc1)c1ccc(O)cc1O (library stock concentration (final ~1000-fold dilution): 10 mM),IRF Lucia reporter activity,RAW-Dual [1]; [4],0.399
same,IRF Lucia reporter activity,RAW-Dual [1]; agonist: LPS (TLR4) 0.1 ug/mL,0.422
Cc1ncc(-c2ccnc(Nc3ccc(S(C)(=O)=O)cc3)n2)n1C(C)C (library stock concentration (final ~1000-fold dilution): 10 mM),IRF Lucia reporter activity,RAW-Dual [1]; [4],1
same,IRF Lucia reporter activity,RAW-Dual [1]; agonist: LPS (TLR4) 0.1 ug/mL,0.0135
Cc1ncc(-c2ccnc(Nc3ccc(S(C)(=O)=O)cc3)n2)n1C(C)C,IRF Lucia reporter activity,RAW-Dual [2]; [5],1.06
CN1CCC(=C2c3ccccc3C=Cc3ccccc32)CC1.Cl (library stock concentration (final ~1000-fold dilution): 10 mM),IRF Lucia reporter activity,RAW-Dual [1]; [4],0.427
same,IRF Lucia reporter activity,RAW-Dual [1]; agonist: LPS (TLR4) 0.1 ug/mL,1.05
CN1CCC(=C2c3ccccc3C=Cc3ccccc32)CC1.Cl,IRF Lucia reporter activity,RAW-Dual [2]; [5],1.01
CCCCCCCCCC(=O)OC1(c2ccc(Cl)cc2)CCN(CCCC(=O)c2ccc(F)cc2)CC1 (library stock concentration (final ~1000-fold dilution): 10 mM),IRF Lucia reporter activity,RAW-Dual [1]; [4],0.979
same,IRF Lucia reporter activity,RAW-Dual [1]; agonist: LPS (TLR4) 0.1 ug/mL,1.14
CCc1ccc(-c2nc(CSCC(=O)NCCc3ccccc3)c(C)o2)cc1 (library stock concentration (final ~1000-fold dilution): 10 mM),IRF Lucia reporter activity,RAW-Dual [1]; [4],1.11
same,IRF Lucia reporter activity,RAW-Dual [1]; agonist: LPS (TLR4) 0.1 ug/mL,0.947
CC(O)Cn1cnc2c1c(=O)n(C)c(=O)n2C (stereo not given),IRF Lucia reporter activity,RAW-Dual [2]; [5],1.05
CC(O)Cn1cnc2c1c(=O)n(C)c(=O)n2C (stereo not given) (library stock concentration (final ~1000-fold dilution): 10 mM),IRF Lucia reporter activity,RAW-Dual [1]; [4],0.968
same,IRF Lucia reporter activity,RAW-Dual [1]; agonist: LPS (TLR4) 0.1 ug/mL,1.32
COCCNCCc1cccc(Nc2ncc3c(n2)-c2ccccc2C(c2ccccc2F)C3)c1 (stereo not given) (library stock concentration (final ~1000-fold dilution): 10 mM),IRF Lucia reporter activity,RAW-Dual [3]; [4],0.0166
same,IRF Lucia reporter activity,RAW-Dual [3]; agonist: LPS (TLR4) 0.1 ug/mL,0.159
Cc1ccc2nc(CN(CCN(Cc3nc4ccc(C)cc4[nH]3)Cc3nc4ccc(C)cc4[nH]3)Cc3nc4ccc(C)cc4[nH]3)[nH]c2c1 (library stock concentration (final ~1000-fold dilution): 10 mM),IRF Lucia reporter activity,RAW-Dual [3]; [4],0.0117
same,IRF Lucia reporter activity,RAW-Dual [3]; agonist: LPS (TLR4) 0.1 ug/mL,0.0238
CN(C(Cc1ccc(OS(=O)(=O)c2cccc3cnccc23)cc1)C(=O)N1CCN(c2ccccc2)CC1)S(=O)(=O)c1cccc2cnccc12 (stereo not given),IRF Lucia reporter activity,RAW-Dual [2]; [5],0.686
CN(C(Cc1ccc(OS(=O)(=O)c2cccc3cnccc23)cc1)C(=O)N1CCN(c2ccccc2)CC1)S(=O)(=O)c1cccc2cnccc12 (stereo not given) (library stock concentration (final ~1000-fold dilution): 10 mM),IRF Lucia reporter activity,RAW-Dual [1]; [4],0.451
same,IRF Lucia reporter activity,RAW-Dual [1]; agonist: LPS (TLR4) 0.1 ug/mL,0.792
